# In the supplement of paper PMC10185492:
# This is one part of the list. Values come from read counts of a selection and are noisy.
# System: SARS-CoV-2 3CLpro (nsp5)
# Assay: substrate phage enrichment score (protease-eluted vs HEPES control, +1 offset) (ratio); higher = better cleaved substrate
# Conditions: selection round: 4; protease elution time: 15 min
# Experimental: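 Random heptapeptide substrate phage display (M13 pIII fusion, heptapeptide between an N-terminal biotinylated AviTag GLNDIFEAQKIEWHE and pIII; phages immobilised on streptavidin) eluted by cleavage with 50 nM protease in 20 mM HEPES at 37 °C. Selected phages were NGS sequenced, and the enrichment score is (reads in protease sample + 1)/(reads in HEPES blank-selection control + 1).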
row,Substance,substrate phage enrichment score
1,ESDTSKA,5
2,ARMPLMM,> 29
3,NLPVRLQ,> 861
4,SQQNAPL,0.756
5,NAGPRHC,0.4
6,HNLSEGY,1.3
7,LMRSTLQ,13
8,EQQAQTT,0.935
9,HVDRNGQ,1.33
10,TTNNWKA,1.55
11,SGNDEPV,0.562
12,AVREKSD,18
13,HQSELRM,10
14,IQTKNTR,> 53
15,SDNWMTG,> 29
16,DPNVLMH,6.4
17,NASAEMS,> 47
18,TKNKEAG,0.952
19,GFNTDLR,> 23
20,NSHDASR,3.71
21,HSAAHHH,1.56
22,VYMESRQ,> 28
23,KPSRDLP,2.57
24,TPKKGLK,0.345

row,Substance,substrate phage enrichment score
1,TATGTVG,0.541
2,RSCIIVT,0.673
3,QEAAHHH,0.239
4,RQSSRLS,1.85
5,HFRPCKR,> 24
6,SPFPLSV,> 23
7,RINDAPG,4.5
8,QNQKAME,> 22
9,RATAHHH,0.545
10,NWQRTMP,> 57
11,KTEYFQG,> 26
12,TEIPETR,> 34
13,PLRCYLY,> 47
14,VCSDARS,0.917
15,ARLEIGP,> 21
16,SASAHHH,0.8
17,HIKLKPQ,1.73
18,GRCNWSN,> 37
19,GCTAAHH,7
20,RGDCARG,> 39
21,ERVTLQC,> 109
22,EQKPTPC,> 49
23,DRNAAAH,> 29
24,SEPPCPL,4.4

row,Substance,substrate phage enrichment score
1,SSVTHAP,> 27
2,CLMDPTT,> 27
3,CSLEGRT,> 21
4,PSHATHG,> 41
5,WCLPSLQ,17.5
6,YSSQGGS,2.92
7,LQIQKDG,3.14
8,SSPAAHH,1.62
9,SAGSSWT,2.9
10,MSKSETW,0.625
11,STSHGAT,> 67
12,HQSKSPD,> 50
13,TLQKIRQ,1
14,RATAAPH,2.55
15,CNHELTG,4.5
16,NQHHTPQ,0.5
17,PGNHHHH,3.43
18,YGCESKK,> 34
19,AMNQPNP,> 23
20,KFLTPWQ,0.227
21,WVGADKN,0.448
22,RQSLHSV,10
23,TGSCTLQ,> 98
24,ANRPHFQ,> 28

row,Substance,substrate phage enrichment score
1,SPLQPRG,> 30
2,DITWSKD,5
3,SRPGSNR,> 45
4,DPINQTT,2.32
5,HITDPMT,> 24
6,LRSGTTI,3.82
7,CRQSGSA,> 36
8,TPEYSAR,> 25
9,VGTWKGA,> 44
10,KRSWRDQ,> 21
11,GRKQCPQ,4.5
12,KHAEFTR,> 85
13,REVISDG,1.67
14,CGACDAS,4.55
15,PLTKNCV,> 32
16,YVSGSNY,1.12
17,AAPWVPW,1.17
18,LSCASAA,> 22
19,QSKAEYA,3.6
20,AQYFQGG,3.48
21,RAAAHHH,0.773
22,GPVRERP,3.87
23,GVLICRR,> 47
24,APNECMS,34

row,Substance,substrate phage enrichment score
1,AKKKPLQ,> 32
2,CRDSGQQ,0.917
3,NGALPTF,2.71
4,LTEDPTR,0.0741
5,YVHESSL,2.13
6,AHAQSEA,> 95
7,KNWACTD,2.43
8,QGWRKPR,> 73
9,TLRGTEG,> 39
10,TRINSHG,10.7
11,NWISPPS,> 33
12,PQHETNH,0.2
13,AELPCLQ,> 28
14,VWPHIII,0.769
15,SDWKLKD,7
16,TKCSNFR,5
17,CSPRLYR,0.718
18,SAAAQNH,1.51
19,QYLQARG,> 30
20,NKTQSRN,3.27
21,LPDRNSE,> 44
22,DILTGRC,4.75
23,CASFQAV,> 21
24,YGDRDDS,19.5

row,Substance,substrate phage enrichment score
1,KESKPPK,> 40
2,IGMESDH,1.38
3,AECGQAK,> 28
4,ATNVILQ,71.5
5,PISEPPN,0.917
6,RAAETVP,0.737
7,PNCALPY,> 123
8,HAQTKNP,> 33
9,GLTPNSA,0.588
10,RVREAPQ,1.93
11,SVLGGTD,1.33
12,WDTQGTR,1
13,STSAHHH,6.6
14,HRNSDLT,3.54
15,CLQSKEP,> 21
16,TPYSKLQ,1980
17,QLCMPGM,0.208
18,VVVRPHI,0.667
19,EEICRMQ,> 48
20,HVAAHHH,0.517
21,PDARAPR,> 24
22,CYPARRY,> 23
23,TKHGETS,6.25
24,QYQKHST,> 25

row,Substance,substrate phage enrichment score
1,GDTNARQ,0.333
2,KDLPNLQ,> 339
3,KSRPHKG,> 34
4,EAPYKPH,4.41
5,SSIRPPR,0.217
6,SNLAGMN,> 23
7,RPQPAYA,0.08
8,QYNADRP,5
9,ALTCDMP,0.25
10,SPAAHHH,0.888
11,PRPTTQK,12.7
12,AKSLHPD,> 26
13,STLTQDW,> 59
14,HEKCYLQ,> 114
15,EPRSTRG,> 107
16,RVQTLRK,> 41
17,KSKTPST,> 42
18,GHCSHGK,> 43
19,CDASVSA,> 39
20,CPSAHSQ,> 26
21,SKPLKGC,5.44
22,TCIRRDV,2.78
23,SREKSQG,> 208
24,SAMNCES,> 28

row,Substance,substrate phage enrichment score
1,RCPVASG,> 25
2,LRPHIII,0.895
3,CAVECIE,0.0741
4,PNFQGGS,4.96
5,LTGTGYS,> 41
6,VTRSGCH,> 21
7,SQRVGNS,2.12
8,AEFKQPV,> 38
9,EQAKHRI,5.43
10,QVERCRP,> 27
11,HIPGTTE,0.944
12,ARNCVLQ,> 33
13,LRRTELQ,> 21
14,QQYGSEC,> 29
15,LTTSPAS,4.27
16,AVTHLQS,> 31
17,QVRGTIR,1.74
18,HTLLQSQ,> 37
19,VCGREHP,0.32
20,EQMPATG,> 24
21,HRLNSGD,> 22
22,QKTNKNG,5.25
23,QYTETAP,2.33
24,AKEPLYP,0.05

row,Substance,substrate phage enrichment score
1,ANRWTSR,8.48
2,PVNLSTC,1.64
3,MGDVPDV,28
4,VAGDLSG,0.65
5,EGLHDVQ,9
6,RAIGGVA,> 21
7,CRALVED,> 41
8,GLSSGNF,> 41
9,SGRANLT,3.67
10,LEHKEND,0.175
11,SWQEVEN,1
12,VSCPMKH,0.583
13,VRPHIII,0.703
14,NQTVRFH,> 29
15,VCQGGSA,5.5
16,QGSTPTL,1.3
17,TWEQAHR,2.2
18,RNWGRWN,1.65
19,SCTGLCA,6.38
20,AGRQHSW,> 27
21,IQKPCAY,6.43
22,RRQPRLQ,> 26
23,NRLKLPN,1.89
24,VPAHPRT,11

row,Substance,substrate phage enrichment score
1,ARLNTRN,0.968
2,SRSNIRP,> 25
3,QPLSTQN,> 35
4,RQNTTSE,0.35
5,PNSARDV,> 22
6,QFPGTRQ,10
7,TPQQRRP,> 29
8,HPRCYIP,12.5
9,REEVNTR,> 21
10,ATLSKPS,5.2
11,KGADTAE,2.06
12,PLPNARN,4.6
13,LTDKAHR,> 21
14,CNDFSVN,> 28
15,THPDGER,2.15
16,MSAAAHH,3.6
17,KPGARCG,> 406
18,KPAAHHH,0.511
